According to the supplement of paper PMC11417369:
± gives the standard deviation of the averaged measurements. Some of the results follow.

tested on: PfAP2-LT AP2 domain (GST-tagged); experiment: gcPBM binding intensity (ln(normalized median fluorescence intensity)); higher = stronger DNA binding
In short: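 Using an Agilent 4 × 180k array, primer-extended double-stranded 36-bp intergenic genomic probes and negative controls were exposed for 1 h to GST-fused P. falciparum DNA-binding domains expressed in E. coli. Binding was carried out in 1× PBS with 1% milk, 0.2 mg/ml BSA, 0.5% salmon testes DNA and 0.03% Triton X-100, and protein was detected with Alexa488 anti-GST antibody and a 488 nm scan. Binding intensity is the highest Masliner-normalised natural-log median intensity across replicate spots of either probe orientation.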

Sequence	gcPBM binding intensity (ln)
TTTTTTTTTTTTTTTGCACACTTGATTTGAGCTTAT [CACACA_site4042]	8.78 ± 0.54
TTTTTTTTTGTTTACACACCCAAATCACATACATAT [CACACA_site4052]	9.11 ± 0.49
AAAATAAAAATACACATTTTTTTTTTTTTTTTTTTT [TGCATGCA_negctrl_site515]	8.83 ± 0.18
GAAAATAGCTAAAATACACACAATTAAAAGTTATTA [CACACA_site7614]	8.99 ± 0.58
TTACAAAAATGTGGTTGTACACAAACAAAAAAAATA [XGTACX_site8506]	8.88 ± 0.57
TATAAATAGATATATACACACATGAAAATAAATAAA [CACACA_site7228]	9.05 ± 0.42
AAATATAATATATGCACACATACATACATATATATA [CACACA_site104]	9.04 ± 0.32
TTTTCCTTTTTGGAATGTACACATATATATTAAATG [XGTACX_site4700]	8.58 ± 0.33
TAATTAAATATTTTCCTACAATTAATAAGAAAAGGA [XGTACX_negctrl_site565]	8.26 ± 0.44
AAGAATAATAACAAATGTACTTATATAAAGTATTAT [XGTACX_site2336]	8.73 ± 0.56
CAGCTCTTAAAAATTACACACATATACGCATATATA [CACACA_site3267]	9.03 ± 0.3
TATTAAGAAGAAAATTCACACATTTGTACCTCTCTT [CACACA_site4822]	8.86 ± 0.47
TTCTTTAAAATAAATTGTACTAACATATATATATAT [XGTACX_site6045]	8.62 ± 0.42
AACTATATATAACTAGTGCAAAGACAATATTTTAAA	8.74 ± 0.45
TATAATATAATATATGCACACAAATATGTATATATG [CACACA_site8664]	9.02 ± 0.3
AAAATTTAATATAATGCACACATAAAAAAAAAAAAT [CACACA_site8425]	9.06 ± 0.5
TTTGATATAGAAAGAGCATGCAAGTTAGATAAAATA [TGCATGCA_site470]	8.93 ± 0.42
TATATATTAATATACACACACACATATATATATATA [CACACA_site1608]	9.79 ± 0.29
AATAAATTATTATGTACACACATAATAGTATATATA [CACACA_site1820]	8.9 ± 0.47
AAAACATACCTATATACACACATATAAATATAAATA [CACACA_site6956]	9.18 ± 0.47
TCATGTTTTACAAAAACACACAAATGAATATAAACA [CACACA_site4775]	8.74 ± 0.46
TATATACATAGACACCCACACACAAAAAAAAAAAAA [CACACA_site8186]	9.43 ± 0.42

Sequence	gcPBM binding intensity (ln)
TCGAATTTGGAAAGAAGTACATGAAGCCAACATATG [XGTACX_site5222]	8.73 ± 0.38
AATAAATAAAAATTATGTACATATATAAAAAATACA [XGTACX_site8581]	8.79 ± 0.36
AAAACAAAATAGGGAACACACACATGTCAATATATA [CACACA_site8834]	9.46 ± 0.37
TTTCAAACTGTTCTCACACACGAAATTAGAAATGAA [CACACA_site4509]	8.87 ± 0.38
TTTTTTTTTTTTTGGTTCACACTGAAAAGAGAGATA [GTGCAC_negctrl_site439]	8.29 ± 0.25
CAATCATGGTTTTACACACACATGCATGTGAAAATT [CACACA_site4870]	9.29 ± 0.23
TTTTGTTATTTTGAAGTGCACTTTCCACTTAATATA	8.91 ± 0.44
ATACCTATTTGATGAGTGCATTATCCAATATATGTA	8.77 ± 0.39
TTTATTATATATAAAAGTACACATTGTAAGGAAACA [XGTACX_site8560]	8.77 ± 0.36
AAATATATATGTATATGTACTTATTTATTTAAAAGG [XGTACX_site4093]	8.48 ± 0.39
TTTTCTGTATAAACTTGTACATATATTTCCTTGTTT [XGTACX_site5745]	8.81 ± 0.47
AAAAGTGATGAGACAAGTACTAACATATTATTATTA [XGTACX_site1533]	8.89 ± 0.47
ATGTTTTACAAAAACACACAAATGAATATAAACATA [CACACA_site6667]	8.82 ± 0.37
AAATAAAATATCAATTAAAACAGAATTGAATTTTTA [CACACA_negctrl_site181]	8.44 ± 0.47
ATATGTTCTACAAAAAAGATGTCGATTTATTTTCTT [CACACA_negctrl_site1179]	8.56 ± 0.49
ACACATATGCATATATGTACATAATATATTAAACTT [XGTACX_site5975]	9.23 ± 0.33
TAAAAAATAAATATATGTACGCAATAAATGTGTTAA [XGTACX_site4043]	8.71 ± 0.45
ATTTAAGATTTAATCACACACATATATATTATATAC [CACACA_site2907]	9.05 ± 0.36
ATAATATATGTATATCCACACACATATATATATATA [CACACA_site8471]	9.81 ± 0.042
GCAAATGTGAAAACGTGTACACATTTTATTTAATTT [XGTACX_site8000]	8.9 ± 0.45
TATTTGTAAATCGATACACACATATATATTAATATA [CACACA_site196]	8.98 ± 0.23
AAATGTAGATATTATCGTACACATATATTTATATAT [XGTACX_site6326]	8.85 ± 0.35

Sequence	gcPBM binding intensity (ln)
AAAAAAAAAAAAAAATGTACAAATAGTAGTTACAGA [XGTACX_site2531]	8.79 ± 0.48
AACATGTTAAAATAAACACACAGCTAAGGTTTTTTT [CACACA_site157]	8.9 ± 0.39
ATAGTAATGCATAAATATATATTATATATATATATA [XGTACX_negctrl_site576]	9.22 ± 0.37
CTATTGTTAAATATAATACACACGTTTTTAAAAATA [CACACA_site2183]	8.55 ± 0.36
GTATATATTTTGTATTCATTTGTCACATATAATAGA [CACACA_negctrl_site506]	8.79 ± 0.43
CAAACACCCAAACACACACACACATACATACATACA [CACACA_site8044]	9.98 ± 0.15
TTTTTTTTTTTTTGTGTGCACCTTATTTTTTTGTAT [GTGCAC_site9617]	9.43 ± 0.47
AAAAAAAAAAAAAATTCACACACATATAAAAAATTA [CACACA_site8140]	8.99 ± 0.43
TAAATTAAGAATTTTACACACATTAAATAAAAAAAA [CACACA_site3638]	8.6 ± 0.54
AAATTAGGAAATTGCACACAAAAAAAAACATATTAT [CACACA_site4074]	9.16 ± 0.45
TTTTTTTATTTTTTTATAAATGTATTTCTATTATTT [CACACA_negctrl_site1562]	8.55 ± 0.59
ATTATATATACATAATGTACATATATATATTACCTT [XGTACX_site7624]	8.88 ± 0.3
TATAAAATGACTATATATAATATTAAAAAAAAAAAA [TGCATGCA_negctrl_site387]	8.37 ± 0.52
AAAATTTCTTTTTTTTGTACATATATAATAATATAT [XGTACX_site7107]	8.6 ± 0.39
GTATTTTTAAATGACACACACATATATATATATATA [CACACA_site1662]	9.74 ± 0.2
TTTGAACGAAAATACTCACACATATTTATAAACATT [CACACA_site5182]	8.66 ± 0.35
ATTTTTCATATATATATATTAATATATATATATTAA [CACACA_negctrl_site1681]	8.59 ± 0.37
AAAAATATATTATATGTACACACAAAATTAAGGGAT [CACACA_site8384]	9.32 ± 0.54
TGAATATTTATACATGCACACTAAAATAAAGAATCT [CACACA_site5351]	8.92 ± 0.4
TATAAATAGGCATATACACACTTTTAATATTCATAA [CACACA_site6123]	8.77 ± 0.35
ATAACAACATTTGATAAACACACAGAAGTATAAATA [CACACA_site8739]	8.94 ± 0.49
CAGTTAATGTTGGTACTTTATATAAAAATGATATGA [CACACA_negctrl_site1600]	8.54 ± 0.45

Sequence	gcPBM binding intensity (ln)
TCTTTCTCTCTTCAAAGTACATATAATATATACTTC [XGTACX_site7982]	8.64 ± 0.45
TTATTAATATTGCATGCACACTATATAATAATTGAA [CACACA_site8258]	8.87 ± 0.34
AAAATATAGTTATCAATATATAATATTTTTTTTTTA [CACACA_negctrl_site459]	8.21 ± 0.49
CATTATTATGATAGTTGTACAATTTTTATAAAAAAT [XGTACX_site4411]	8.66 ± 0.47
GAAATAGAGAAACACACACACATATATTTATGTATT [CACACA_site3967]	9.68 ± 0.25
ATAAAAATAAAAAGATGTACGTATTTTTTTTTTTTT [XGTACX_site5329]	8.69 ± 0.36
TATAAATAAATGCGTACACACTAATAAAAAAAAAAA [CACACA_site4630]	8.98 ± 0.49
AATATATTTTAATACACACACACATATATATATATA [CACACA_site5969]	9.64 ± 0.43
TTTTTTTTAAATATCACACACATATAACATATTCTA [CACACA_site7687]	8.88 ± 0.4
ATATGTATATAAATGTGTACTTATAAATATATATAT [XGTACX_site3250]	8.99 ± 0.3
TGGAAAAATAGGCACACACACATATATACCTATATA [CACACA_site4843]	9.56 ± 0.4
TTTTTTTTTTTTGAGTGTACTAAAATATTACCTTTT [XGTACX_site646]	8.49 ± 0.52
AATATTATAAATGATACACACTTAAAATACACCCAC [CACACA_site5498]	9.42 ± 0.11
GAATTTATTTTATTTTCACACACAAAAATAAATATC [CACACA_site8762]	8.94 ± 0.39
TTCTTTAATAAAATAATCTCAAAGAAAATTTTTTCT [GTGCAC_negctrl_site589]	7.91 ± 0.32
TTATCCATTTTAATCACACATACTTTACTTTGGAAC [CACACA_site5584]	8.75 ± 0.45
AATAAATAGATATATACACACATATATGTGTACATA [CACACA_site7476]	9.49 ± 0.29
TATAAACATATAAAAAGTACATACCAATTAATATTA [XGTACX_site967]	8.77 ± 0.49
GGATAAAATGCTACGAGTACATAAGCATTTTTCCCT [XGTACX_site7796]	8.78 ± 0.31
TATTCTGTGTATAAAAGTACAAATATTTAAATGTAT [XGTACX_site8234]	8.69 ± 0.44
AATATATTCATCATATCAATATTGTCAAGCAAACGA [TGCATGCA_negctrl_site37]	8.77 ± 0.45
TTGTATATATTAAATTGTACTTATTTTTTGTATATA [XGTACX_site3251]	8.64 ± 0.54
